The data set relates to cellular ATP levels. To be noted: for ATP (composite Z-score): normalized score vs mock-treated (DMSO) wells.
Where [1] appears, read: composite Z-score vs mock-treated (DMSO) wells, Conc 20 μM.
Setting [2] is: composite Z-score vs DMSO, Conc 20 μM.
The mark [3] stands for this setting: normalized composite Z-score vs mock-treated (DMSO) wells, Conc 20 μM.
The mark [4] stands for this setting: composite Z-score vs DMSO wells, Conc 20 μM.
The mark [5] stands for this setting: 20 μM, composite Z-score vs DMSO.

“And” between values parts separate entries of the source, which are not always exact repeats. Identical values can stand only once. Like-named read-outs stand apart in the source and are kept apart here.

`COC(=O)[C@@H]1OC(=O)C2OC23[C@@]1(C)CCC1[C@@]2(C)CCC(=O)C(C)(C)C2C[C@@H](OC(C)=O)[C@]13C` (stereo partly drawn) [dihydrogedunic acid, methyl ester]: the ATP under setting [1] worked out at 0.122.
The same measure, in the same setting: under `CC(=O)O[C@@H]1C[C@H]2C(C)(C)C(=O)CC[C@]2(C)[C@H]2CC[C@@]3(C)[C@H](c4ccoc4)OC(=O)[C@H]4O[C@]43[C@@]21C` [dihydrogedunin] stands 0.315.
Take `COC(=O)[C@@H]1OC(=O)[C@H]2O[C@@]23[C@@]1(C)CCC1[C@@]2(C)CCC(=O)C(C)(C)C2C[C@@H](OC(C)=O)[C@]13C` (stereo partly drawn) [dihydrogeduninic acid, methyl ester]: the “ATP (composite Z-score)” value (Conc 20 μM) came out at 0.519.
For `CCCCCC1C(=O)CCC1CC(=O)OC` (stereo not drawn) [dihydrojasmonic acid, methyl ester], under setting [2], the ATP is −0.049.
Under setting [3], `CCCCCC1C(=O)CCC1CC(=O)O` (stereo not drawn) [dihydrojasmonic acid] gave an ATP of 0.502.
In the case of `COc1c(CC(=O)c2cc3c(cc2O)OC(C)(C)C(O)C3)ccc2c1C=CC(C)(C)O2` (stereo not drawn) [dihydromunduletone], under setting [3], the ATP is recorded as −2.030.
`Cc1cc(=O)c2c(O)c3c(cc2o1)OCC(C)CC3` (stereo not drawn) [dihydroptaeroxylin] displayed an ATP under setting [3] of 0.530.
For `COc1ccc(-c2c(O)c3c(OC)c4c(cc3oc2=O)OC(C)(C)CC4)cc1` [dihydrorobustic acid, reference compound], the ATP under setting [2] was 2.345.
Turning to `COc1cc2c(cc1OC)[C@@H]1C(=O)c3ccc4c(c3O[C@@H]1CO2)CC(C(C)C)O4` (stereo partly drawn) [dihydrorotenone, reference compound], the ATP under setting [2] is −5.350.
Turning to `CC(=O)O[C@@H]1c2c(ccc3ccc(=O)oc23)OC(C)(C)[C@@H]1OC(=O)CC(C)C` [dihydrosamidin, reference compound], the “ATP (composite Z-score)” value (Conc 20 μM) worked out at 0.085.
Consider `Cc1cc(=O)c2c(O)c3c(cc2o1)OC(C)(C)CC3` [dihydrospatheliachromene], for which the ATP under setting [1] was found to be 0.342.
`C[C@@H]1CC[C@@]2(OC1)O[C@H]1C[C@H]3[C@@H]4CC=C5C[C@@H](O)CC[C@]5(C)[C@H]4CC[C@]3(C)[C@H]1[C@@H]2C` [diosgenin] had an ATP under setting [2] of −0.057.
Under setting [3], `COc1ccc(-c2cc(=O)c3c(O)cc(O)cc3o2)cc1O` [diosmetin] showed an ATP of −0.756.
For `COc1ccc(-c2cc(=O)c3c(O)cc(O[C@@H]4O[C@H](CO[C@@H]5O[C@@H](C)[C@H](O)[C@@H](O)[C@H]5O)[C@@H](O)[C@H](O)[C@H]4O)cc3o2)cc1O` [diosmin], the ATP under setting [4] is 0.452.
Turning to `CC(=O)Oc1ccccc1C(=O)Oc1ccccc1C(=O)O` [diplosalsalate], the “ATP (composite Z-score)” value (Conc 20 μM) is −0.137.
As for `CC(=O)Oc1cccc(C(=O)O)c1OC(C)=O` [dipyrocetyl], for the setting “Conc 20 μM”, the “ATP (composite Z-score)” value is 1.278.
The molecule `Cc1c(N(C)CS(=O)(=O)[O-])c(=O)n(-c2ccccc2)n1C.[Na+]` [dipyrone] displayed an ATP under setting [4] of 0.582.
`COc1ccc2c(c1OC)OC[C@@H](c1ccc(OC)c(OC)c1OC)C2` [duartin, dimethyl ether]: the ATP under setting [1] is 0.049.
As to `CCCCOc1ccc(C(=O)CCN2CCCCC2)cc1` [dyclonine], the ATP under setting [4] is 0.157.
`CC[N+](C)(C)c1cccc(O)c1` [edrophonium]: the ATP under setting [5] worked out at 0.134 and the ATP (24.06 μM, composite Z-score vs DMSO) was found to be 1.406.
`O=C(O)c1cc(O)c2c(c1)C(=O)c1cc(O)cc(O)c1C2=O` [emodic acid]: the “ATP (composite Z-score)” value (Conc 20 μM) is given as −0.639.
For `ClC1=C(Cl)C2(Cl)C3C4CC(C5OC45)C3C1(Cl)C2(Cl)Cl` (stereo not drawn) [endrin], the ATP under setting [5] is on record as 0.305.
For `CCC(C)C(=O)O[C@@H]1C[C@@]2(C)[C@H](c3ccoc3)OC(=O)CC23OC2(C)OC34[C@H](OC(=O)C(C)C)[C@@]3(O)[C@@H](OC(=O)C5(C)OC5C)[C@@]5(C)C[C@]3(O)[C@@](C)([C@H]5CC(=O)OC)C14O2` (stereo partly drawn) [entandrophragmin], the ATP under setting [1] was 1.006.
Molecule `CN[C@@H](C)[C@H](O)c1ccccc1` [ephedrine] returned an ATP under setting [2] of −1.049.
`C=C[C@@](C)(O)CCC1C(=C)CCC2[C@@](C)(CO)CCC[C@]12C` (stereo partly drawn) [epi(13)torulosol]: the ATP under setting [3] turned out to be 1.007.
The same measure, in the same setting: the value for `COc1ccc([C@H]2Oc3cc(OC)cc(OC)c3C[C@H]2O)cc1` [epiafzelechin trimethyl ether] was 0.312.
For `Oc1ccc([C@H]2Oc3cc(O)cc(O)c3C[C@H]2O)cc1` [epiafzelechin(2r,3r)(−), reference compound], the ATP (Table 4, C2C12 myotubes, 48 h, composite Z-score) is reported as 0.986.
`C[C@]12CCC3C(CC[C@H]4C[C@H](O)CC[C@]34C)C1CC[C@@H]2O` (stereo partly drawn) [epiandrostanediol]: under setting [2], the ATP worked out at 1.132.
For the molecule `O=C(Oc1cc(O)cc2c1C[C@@H](OC(=O)c1cc(O)c(O)c(O)c1)[C@@H](c1cc(O)c(O)c(O)c1)O2)c1cc(O)c(O)c(O)c1` [epigallocatechin 3,5-digallate], the ATP under setting [3] turned out to be 1.156.
Take `C/C1=C\CC(C)(C)/C=C/CC2(C)OC2CC1` (stereo not drawn) [epoxy (1,11)humulene]: the “ATP (composite Z-score)” value (Conc 20 μM) was 0.320.
In the case of `C[C@@H]1C(=O)O[C@H]2[C@H]1CC[C@@]1(C)C=CC(=O)[C@@]3(C)O[C@@]213` [epoxy (4,5alpha)-4,5-dihydrosantonin], the ATP under setting [1] was determined as 0.475.
As for `CC(=O)O[C@@H]1CC2C(C)(C)C(=O)C3OC3[C@]2(C)C2CC[C@@]3(C)[C@H](c4ccoc4)OC(=O)C4OC43[C@@]21C` (stereo partly drawn) [epoxygedunin], the “ATP (composite Z-score)” value (Conc 20 μM) stood at 0.227.
In the case of `C[C@]12CC[C@H]3C(=CCc4cc(O)ccc43)[C@@H]1CCC2=O` [equilin], the ATP was −0.045.
`C=C1CC[C@H](O)C/C1=C/C=C1\CCC[C@]2(C)[C@@H]([C@H](C)/C=C/[C@H](C)C(C)C)CC[C@@H]12` [ergocalciferol] returned an ATP under setting [5] of −0.913.
In the case of `CC(C)[C@@H](C)C=C[C@@H](C)[C@H]1CC[C@H]2C3=CCC4CC(=O)CC[C@]4(C)[C@H]3CC[C@]12C` (stereo partly drawn) [ergosta-7,22-dien-3-one], the ATP under setting [2] came out at 0.167.
On the same count and under the same terms, under `CC(C)[C@@H](C)/C=C/[C@@H](C)[C@H]1CC[C@H]2C3=CC=C4C[C@@H](O)CC[C@]4(C)[C@H]3CC[C@]12C` [ergosterol] stands −0.762.
Regarding `CS(=O)(=O)CCCCN=C=S` [erysolin], the “ATP (composite Z-score)” value (Conc 20 μM) is given as −3.023.
In the case of `CCOC(=O)CCC(=O)O[C@H]1[C@H](O[C@@H]2[C@@H](C)[C@H](O[C@H]3C[C@@](C)(OC)[C@@H](O)[C@H](C)O3)[C@@H](C)C(=O)O[C@H](CC)[C@@](C)(O)[C@H](O)[C@@H](C)C(=O)[C@H](C)C[C@@]2(C)O)O[C@H](C)C[C@@H]1N(C)C` [erythromycin ethylsuccinate], under setting [5], the ATP stood at 0.825.
For the molecule `C[C@]12CC[C@@H]3c4ccc(O)cc4CC[C@H]3[C@@H]1CC[C@@H]2OC(=O)CCC1CCCC1` [estradiol cypionate], the ATP under setting [4] is given as 0.452.
For `COc1ccc2c(c1)CC[C@@H]1[C@@H]2CC[C@]2(C)[C@@H](O)CC[C@@H]12` [estradiol methyl ether], the ATP under setting [2] came to 0.823.
Same read-out and setting: under `C[C@]12CC[C@@H]3c4ccc(O)cc4CC[C@H]3[C@@H]1CC[C@@H]2O` [estradiol] stands 0.137.
With `CC12CCC3c4ccc(OCc5ccccc5)cc4CCC3C1C[C@@H](O)[C@@H]2O` (stereo partly drawn) [estriol benzyl ether], the “ATP (composite Z-score vs DMSO mock-treated wells)” value is listed as 2.168.
As to `C[C@]12CCC3c4ccc(OC(=O)c5ccccc5)cc4CCC3C1CCC2=O` (stereo partly drawn) [estrone benzoate], the ATP under setting [2] came to 0.592.
On the same count and under the same terms, under `CCOC(=O)c1c(C)cc(OC)cc1O` [ethyl everninate] stands 0.492.
For the molecule `CCC(N)C(O)c1ccc(O)c(O)c1` (stereo not drawn) [ethylnorepinephrine], the “ATP (composite Z-score)” value (Conc 20 μM) is listed as 0.711.
`Cc1cc(=O)c2c(O)c(C)c(O)cc2o1` [eugenitol]: under setting [1], the ATP was found to be 0.166.
Under setting [5], `C=CCc1ccc(O)c(OC)c1` [eugenol] came in with an ATP of 0.081.
As for `COc1cc(C)c(C(=O)O)c(O)c1` [everninic acid], the ATP under setting [3] is listed as 0.947.
For the molecule `CC(C)=CCC/C(C)=C/CC/C(C)=C/CO` [farnesol], the ATP under setting [2] turned out to be 0.026.
Turning to `CC(C)(OC(=O)c1ccccc1)[C@@H]1Cc2cc3ccc(=O)oc3cc2O1` [felamidin], the ATP under setting [2] is listed as 0.238.
Molecule `CC(NCCC(c1ccccc1)c1ccccc1)c1ccccc1` (stereo not drawn) [fendiline] returned an ATP under setting [4] of 0.842.
As to `Oc1ccc2c(c1)O[C@H](c1ccc(O)c(O)c1)[C@@H](O)C2` [fisetinidol, reference compound], the “ATP (composite Z-score)” value (Conc 20 μM) was 0.542.
`COC(=O)C[C@H]1C(C)(C)[C@@H](OC(C)=O)[C@@H]2CC3=C4CC(=O)O[C@@H](c5ccoc5)[C@]4(C)CC[C@@H]3[C@@]1(C)C2=O` [fissinolide] showed an ATP under setting [1] of 0.175.
Take `COc1cc(O)c(C(=O)/C=C/c2ccccc2)c(OC)c1` [flavokawain B]: under setting [2], the ATP is 0.641.
Molecule `O=c1[nH]c(=O)n([C@H]2C[C@H](O)[C@@H](CO)O2)cc1F` [floxuridine] came in with an ATP under setting [4] of 0.511.
The molecule `CC(=O)[C@@]1(O)CC[C@H]2[C@@H]3C[C@H](C)C4=CC(=O)C=C[C@]4(C)[C@@]3(F)[C@@H](O)C[C@@]21C` [fluorometholone] came in with an ATP (composite Z-score vs DMSO, Conc 10.62 μM) of −0.458.
`CC(C)n1c(/C=C/C(O)CC(O)CC(=O)O)c(-c2ccc(F)cc2)c2ccccc21` (stereo not drawn) [fluvastatin, reference compound]: the “cellular ATP levels” value (screen, FIG. 9a, in words) is “strong decreases”.
Take `C[C@]12CCC(=O)C(O)=C1CC[C@@H]1[C@@H]2CC[C@]2(C)C(=O)CC[C@@H]12` [formestane]: the ATP under setting [2] is recorded as −0.830.
Regarding `COc1cc2ccc(=O)oc2c(OC)c1OC` [fraxidin methyl ether], under setting [1], the ATP worked out at 0.407.
As for `C[C@H]1C(=O)CC[C@@H]2[C@]1(C)CC[C@H]1[C@@]2(C)CC[C@@]2(C)[C@@H]3CC(C)(C)CC[C@]3(C)CC[C@]12C` [friedelin], the ATP under setting [2] is reported as 0.462.
In the case of `O=C1OCCN1/N=C/c1ccc([N+](=O)[O-])o1` [furazolidone], the ATP was 1.071 and 1.326.
`CC[N+](CC)(CC)CCOc1cccc(OCC[N+](CC)(CC)CC)c1OCC[N+](CC)(CC)CC` [gallamine] gave an ATP under setting [4] of −0.341.

The values are drawn from patent US20090143279A1 (priority 2007, published 2009).
